Results on 42 compounds are retold here after ChEMBL document CHEMBL4888484, “Replenishing the malaria drug discovery pipeline: Screening and hit evaluation of the MMV Hit Generation Library 1 (HGL1) against asexual blood stage Plasmodium falciparum ,using a nano luciferase reporter read-out” (2022).

In all, about 150,000 compounds went through this assay and about 540 (0.36%) showed an effect of 50% or more. This is one part of the list.

The assay concerns Plasmodium falciparum. Kind of assay: Primary screen in NF54 nanoGlo assay, in single point, at 2uM, 72h; a lower Z score goes with more inhibition. The note with it: timepoint 72 hour. The assay is classed as functional, Erythrocyte.
Take `O=C(Nc1nncs1)c1ccc2[nH]c3c(c2c1)CCCC3`: the “% Inhibition” value is reported as -1% and the Z score came to 0.15.
Take `CCN1C(=O)c2c(C(=O)NC3CC3)ncn2C[C@@]1(C)C(=O)NCc1ccc(F)cc1`: the “% Inhibition” value is given as -12% and the Z score was found to be 2.22.
For `COc1ccc(CN2CC[C@@H](CO)[C@@H](O)C2)cc1Cn1cccn1`, in that order: -4% and 0.49.
For the compound `O=C(Cn1ncc2ccc(Cl)cc21)NC1CCCCCC1`, the “% Inhibition” value is reported as -7% and the Z score was 1.
For `O=C(O)C1(Oc2ccc(Cl)cc2)CCN(Cc2ccc(CO)o2)CC1`, in that order: -5% and 1.
For `CN(Cc1cnccn1)Cc1cc(Br)cc2cccnc12`, in that order: -9% and 0.83.
For `Cc1ncn(CCNc2cccc(C(=O)N(C)C)n2)c1C`, in that order: -9% and 1.27.
As to `COC(=O)Cc1cccc2cnccc12`, the “% Inhibition” value is recorded as -5% and the Z score is recorded as 0.7.
Regarding `C[C@H](NC(=O)Cc1cccc(O)c1)c1ccc(-n2ccnn2)cc1`, the “% Inhibition” value is reported as -3% and the Z score was determined as 0.55.
For the compound `COc1ccc(-c2nc3cnccn3c2Nc2ccc3c(c2)OCCO3)cc1OC`, the “% Inhibition” value is -3% and the Z score is listed as 0.49.
For `Cc1cc2c(cc1-c1cn(CCN(C)S(C)(=O)=O)nn1)OCO2`, in that order: -9% and 0.83.
For `CCN(CC)C(=O)c1cn([C@H]2CC[C@@H](NC(=O)c3ccc(NC(C)=O)cc3)CC2)nn1`, in that order: 13% and -1.62.
For `O=C(Cc1cnn(-c2ccccc2)c1)NC[C@H]1CCCO1`, the “% Inhibition” value is -3% and the Z score turned out to be 0.48.
For `COc1ncc(CN2CCCC[C@@H]2CCc2cccc(O)c2)cn1`, in that order: -6% and 0.94.
In the case of `O=C(Cc1cscn1)N1CC2(CCOCC2)CC[C@@H]1CO`, the “% Inhibition” value is reported as -4% and the Z score is 0.49.
For `CC1COC(c2ccccc2)C(C)N1Cc1cccc(O)c1` (centres undefined), in that order: -3% and 0.52.
For `CCCc1cnc(C)nc1-c1ccc(C(=O)N2CCc3n[nH]cc3C2)cc1`, in that order: -5% and 1.01.
Regarding `CCCOCC(=O)N1CC[C@]2(OC)CC[C@@H](Oc3ccccn3)C[C@H]12`, the “% Inhibition” value is recorded as -16% and the Z score is recorded as 1.58.
For `CCCc1cc(C(=O)Nc2ccc3c(c2)OCO3)no1`, in that order: -1% and 0.22.
For `Cc1ccc([C@H](C(=O)Nc2ccc(C(C)C)cc2)N(Cc2ccco2)C(=O)Cc2cc3ccccc3[nH]2)cc1`, in that order: -16% and 3.07.
In the case of `N#CCC(=O)N(CC(F)(F)F)C1CC1`, the “% Inhibition” value was -19% and the Z score came out at 2.89.
For `CCOC(=O)N1CCN(C(=O)c2ccc(=O)n(C)n2)CC1`, in that order: -2% and 0.26.
Take `CCCCOCCN(Cc1nnsc1Cl)c1cccc(Br)c1`: the “% Inhibition” value is given as -12% and the Z score came to 1.48.
For `O=C(c1ccccc1)N1CCC(c2nc(-c3ccncc3)cs2)CC1`, in that order: -2% and 0.2.
For `CC(CC(=O)O)CC(=O)N1CC(C)CC(C)C1` (centres undefined), in that order: 38% and -5.45.
For `O=C(NCCc1nccs1)[C@H](O)c1cccc(F)c1`, in that order: 9% and -1.28.
On to `CCC#CCN1CCC[C@H](CNC(=O)c2ccon2)C1`, for which the “% Inhibition” value is given as -4% and the Z score worked out at 0.89.
Regarding `CCCN(C)C(=O)C(=O)Nc1cccc(C#Cc2ccccn2)c1`, the “% Inhibition” value is reported as -12% and the Z score is 2.27.
For `Cn1c(C#N)ccc1C(=O)N1CCOCC12CCCC2`, in that order: -11% and 2.09.
For `CN(C)c1ccc(CN2CCCC[C@@H]2CCN2CCCC2=O)cn1`, in that order: -11% and 1.36.
For `Cc1cc(=O)n(Cc2ccccc2F)c2cc(OCC(=O)NCc3ccccn3)ccc12`, in that order: 5% and -0.64.
On to `COc1nc2c(cc1CNC(=O)CNC(N)=O)C(=O)N(C1CCCC1)C2`, for which the “% Inhibition” value was found to be 4% and the Z score was -0.63.
For `O=C1N(CC2CCCCC2)CCC[C@@]1(O)CN1CCC(CO)CC1`, in that order: -5% and 0.64.
For `C(CN1CCOCC1C1CC1)CN1CCOCC1C1CC1` (centres undefined), in that order: -1% and 0.16.
For `CC(C)(C)NC(=O)CN1CCC(CNC(=O)c2nccnc2N)CC1`, in that order: 2% and -0.27.
As to `O=C(NCc1ccc(F)cc1)N1CCC[C@@H]1CN1CCCC1`, the “% Inhibition” value is on record as -10% and the Z score stood at 1.91.
For `COCCn1cnnc1[C@H](C)Nc1nc(C)nc2ccsc12`, in that order: -11% and 2.11.
`CCN(CC)CCCC(C)NC(=O)CC(c1ccc(OCc2ccccc2)c(OC)c1)c1cn(Cc2ccccc2)c2ccccc12` (centres undefined): the “% Inhibition” value is listed as 5% and the Z score is reported as -0.61.
For `CC1CN(C(=O)CCn2nnc3ccccc3c2=O)CC1N(C)C` (centres undefined), in that order: -1% and 0.1.
For `CCCCNC(=O)CN(C)C(=O)c1c(C)[nH]c(C)cc1=O`, in that order: -10% and 2.03.
For `Cc1noc(CN2CCC(N3CCN(c4cc(C(F)(F)F)ccn4)CC3)CC2)n1`, in that order: -2% and 0.22.
As for `c1ccc(C2CN(c3nc(N4CCOC(c5ccccc5)C4)c4ccccc4n3)CCO2)cc1` (centres undefined), the “% Inhibition” value is -11% and the Z score is 2.03.

In general, % Inhibition refers to the drop in the measured response relative to a control, in per cent.
